Experimental data published in the supplement of paper PMC3724861.
Some of the results follow.

The sequences below were run on T1, Caupolican (Caup) homeodomain DNA-binding domain (assay: PBM E-score (8-mer, recovered from the published 9-mer minima) (E-score (dimensionless, -0.5 to 0.5)); Drosophila protein; higher = stronger relative binding preference, active = 0.31 or more).
T1 sequence: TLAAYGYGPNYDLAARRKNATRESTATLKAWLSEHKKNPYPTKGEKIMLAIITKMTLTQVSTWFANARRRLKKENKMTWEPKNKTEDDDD
Procedure, shortened: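 An enrichment score, with higher meaning stronger, expresses relative binding preference for each short DNA word. The protein used was Caup's homeodomain DNA-binding domain (residues 214-303), produced by in vitro transcription and translation and tested at 100 nM on custom-designed protein binding microarrays. The 8-mer values were recovered from published 9-mer scores, each equal to the lower of its two constituent 8-mer scores.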

Sequence | PBM E-score
AGTTGTTC | inactive: 0.261
AGACTGTG | inactive: 0.0481
AGGCCATC | inactive: -0.0892
TACGGGGA | inactive: -0.156
ATCAGCCA | inactive: -0.094
CGTTATAA | inactive: 0.0957
TCAGGTAA | inactive: 0.0914
AAATGGAC | inactive: 0.12
AGCAGTTC | inactive: -0.0654
CTTCGCGA | inactive: -0.129
CGGTCAGA | inactive: -0.035
CGCGTAAC | inactive: 0.126
TCACTCCA | inactive: -0.0552
CAGCGCTC | inactive: -0.18
ATTAAAGC | inactive: 0.0748
ATCGCCGA | inactive: -0.113
AGTCCCCA | inactive: -0.149
TCGGATAA | inactive: 0.0568
AAAAGGGT | inactive: -0.0385
TCTTATAA | inactive: 0.125
CATTCGCC | inactive: -0.165
AAAGATTT | inactive: -0.00222
CCTGACCG | inactive: -0.201
CTCGGATC | inactive: -0.0439
AACAGACC | inactive: 0.103

Sequence | PBM E-score
CAACTCTG | inactive: -0.0623
CGTTATCC | inactive: 0.00298
GCATATAC | inactive: 0.0987
GTTCAGTA | inactive: 0.152
ACGCGGTA | inactive: -0.0618
ATGCCATC | inactive: -0.0274
AACCCGGA | inactive: -0.132
ACCTAGCC | inactive: -0.179
AGGCTGTG | inactive: -0.0202
CCGGTGCC | inactive: -0.278
GCTAGAGC | inactive: -0.0724
GAACGCTA | inactive: -0.0459
GCAGGGAC | inactive: -0.161
ACGGGCAT | ≥ -0.014
GGGCAAAA | inactive: -0.0653
CATAGGCG | inactive: -0.00984
TACACCTA | ≥ 0.243
CCTTCCAA | inactive: -0.0625
GTATAGCA | inactive: 0.0731
ATTGCTCC | inactive: -0.0622
CAGTCCGG | inactive: -0.196
CACAACAC | inactive: 0.265
CTCGGGGC | inactive: -0.191
AGAATCCC | inactive: -0.0157
CCCTTTTC | inactive: -0.0893

Sequence | PBM E-score
CACAGTAC | inactive: 0.131
CTCCATTC | inactive: -0.0435
AAATCATT | inactive: 0.0648
CTACGGTC | inactive: -0.124
CATGAGTA | inactive: 0.15
AGGATTCG | inactive: -0.0662
AGCTTCGA | inactive: -0.0868
ACAGAGCG | inactive: 0.0115
ATTGTGCG | inactive: -0.0378
ACTTAAGT | inactive: 0.0483
ACTGTCTC | inactive: -0.00505
TCTGGACA | inactive: 0.196
ACAGACCG | inactive: 0.00042
ACACATCA | inactive: 0.156
CGATTAAC | inactive: 0.0632
CATTACCG | inactive: 0.0447
GAGGGGAC | inactive: -0.138
CCCGTCTA | ≥ -0.0405
AGTCACCA | inactive: 0.00793
ATGCCTTA | inactive: -0.041
ATATTTGA | inactive: 0.131
AGGTGACA | inactive: 0.159
ACATAACA | active: 0.332
AATGGCAG | inactive: -0.056
GGTCCTCA | inactive: -0.0928

Sequence | PBM E-score
AATCATGT | active: 0.42
GCACGCCC | inactive: -0.192
GCCCATGA | inactive: -0.142
CACTTAAG | inactive: 0.0776
ACGGCCCT | inactive: -0.161
ATGGTGCG | inactive: 0.0265
CTAAGCTC | inactive: -0.05
GAGTTTGC | inactive: -0.0488
CTCAACAG | inactive: 0.012
CAAATGTA | inactive: 0.294
CCGGGTGC | inactive: -0.287
GCTAAATA | inactive: 0.0153
CTATCTTA | inactive: 0.0289
CACCCCGG | inactive: -0.0927
GAAGACGC | inactive: -0.143
AATCACAC | inactive: 0.126
GGAGTTAC | inactive: 0.0415
CCGACCCG | inactive: -0.206
GACGATTA | inactive: 0.111
GTCAGAAC | inactive: 0.0109
CAATATCA | inactive: 0.195
CAGCGGAA | inactive: -0.159
AGGTTACT | inactive: 0.0483
GAAACAGC | inactive: -0.00702
CCGCTAAC | inactive: -0.0919

Sequence | PBM E-score
CACAATCG | inactive: 0.0134
ACCCGGGA | inactive: -0.11
GCGGAGTA | inactive: -0.0693
CCATGGCA | inactive: -0.0986
TAGGCGCA | inactive: -0.0855
ACTCCGCA | inactive: -0.121
ACAGAACA | inactive: 0.297
CCTGCTAC | inactive: 0.0387
ACCGGTCG | inactive: -0.0163
CTGTCATA | inactive: 0.246
CGAGAAGC | inactive: -0.0725
CCCATCAC | inactive: -0.0736
CCCTGATC | inactive: -0.118
ATCACAGC | inactive: 0.089
AATGGGCC | inactive: -0.152
GACAGCGC | inactive: 0.00179
CCTTGCCG | inactive: -0.169
ACTCGAGG | inactive: -0.122
AGAAAAAT | inactive: 0.0492
CTAGCTTA | inactive: -0.00803
ATAGCGGA | inactive: -0.0519
GGACAATA | inactive: 0.0441
AGCGGAAC | inactive: -0.0552
AACGCCGA | inactive: -0.0968
CTGCGACC | inactive: -0.228

Sequence | PBM E-score
AGCAGTGG | inactive: -0.191
AGGTCTGA | inactive: -0.0349
GACGGAAC | inactive: 0.00422
AAAGTCGG | inactive: -0.134
ACGTGTGC | inactive: 0.0653
GTTAGTGA | inactive: 0.152
AGAATTGA | inactive: 0.0274
CCAAGCAA | inactive: -0.0569
CTGTTTCC | inactive: 0.0673
AGTTAGAG | inactive: -0.067
CACGTGCC | inactive: 0.0232
GTTGTATA | active: 0.347
AAGTAGCT | inactive: 0.0117
AAGAGGCA | inactive: -0.122
AATGATCC | inactive: 0.0625
AGAACAAG | active: 0.329
AAAAATGT | inactive: 0.156
AGACTCTG | inactive: -0.015
AAATCATC | inactive: 0.141
CCTGTAAC | inactive: 0.176
GCCATAGC | inactive: -0.0247
CCACAAAA | inactive: -0.0507
ACGTTGCG | inactive: -0.0633
AGGAAATC | inactive: 0.0471
CACTATGA | inactive: 0.0412

Sequence | PBM E-score
ACTATAAT | inactive: 0.162
CCCAACAC | inactive: -0.0228
ATCCCGAT | inactive: 0.0662
GCTAATTA | inactive: 0.176
ATTGAAAA | inactive: 0.0968
ACTTCGGC | inactive: -0.147
GCGATCGA | inactive: 0.0192
ATCAAACG | inactive: 0.0303
GATTCTGC | inactive: 0.0258
GTGGTAAA | inactive: 0.103
CAGATTCA | inactive: 0.0623
ACCCTTCC | inactive: -0.0906
CCACTTCA | inactive: -0.0321
CACGGTCC | inactive: -0.0957
CCAACTAA | inactive: 0.0388
AACATCTA | inactive: 0.252
AAAAACTC | inactive: -0.0364
CCAGAATA | inactive: 0.0959
ACCGTGCA | inactive: 0.00395
AGCTCCCA | inactive: -0.138
GTAGAGAA | inactive: -0.0528
ATTACTGC | inactive: 0.106
CCATGAGG | inactive: -0.199
GCAGAAAA | inactive: 0.004
CGATATTA | inactive: 0.219

Sequence | PBM E-score
ACCCATGG | inactive: -0.101
ACGCCCAT | ≥ -0.00794
CATCAGAC | inactive: 0.067
CACTATTA | inactive: 0.124
CGTTAGGA | inactive: 0.00342
CGGTTTAA | inactive: 0.0679
AAGTTGGA | inactive: 0.0552
ACATGTGG | inactive: 0.308
GCCTTAAA | inactive: -0.16
CTTTAGCA | inactive: -0.0832
CGGAAGAC | inactive: -0.0117
GAGCTGAC | inactive: -0.0129
CGCGGCCC | inactive: -0.267
TCATACGA | inactive: 0.104
CTTTCATC | inactive: -0.0828
CTCGAGAC | inactive: 0.0356
ATCAACTC | inactive: 0.0558
TGTACGAA | inactive: 0.263
CCGCGCGA | inactive: -0.136
GTTATATA | inactive: 0.225
AACCCAAG | inactive: 0.0182
CAGTAGGC | inactive: -0.0857
AGTACGAT | inactive: 0.0654
CGGGGCGA | inactive: -0.166
GAAGCAAA | inactive: 0.0215

Sequence | PBM E-score
AAGCGGCA | inactive: -0.0573
AAGTTGCA | ≥ 0.123
GTTTCGTA | inactive: 0.119
CTTCCGAC | inactive: -0.0133
GGGGCCCC | inactive: -0.304
CCAGAAAC | inactive: -0.0438
AGTCTAAA | inactive: -0.00954
CTTATACC | inactive: 0.0127
ACGCCAGT | inactive: -0.153
ACCAACTC | inactive: -0.0119
CACGGCAC | inactive: -0.0334
GGGTCTTA | inactive: -0.101
ACAATCAG | inactive: 0.103
CACTTAAC | inactive: 0.121
GTACGTTA | inactive: 0.181
ACCTCCGT | inactive: -0.111
ATTATAAT | inactive: 0.156
CTTGTGGC | inactive: -0.0577
CCTTCGAA | inactive: -0.138
CGAGCGTC | inactive: -0.186
CCCGGCTC | inactive: -0.226
AGACTCTA | inactive: -0.00144
